Data taken from PubChem BioAssay AID504845 (National Center for Advancing Translational Sciences (NCATS), 2011).
About 150 (0.038%) of roughly 390,000 compounds were called active. Inconclusive results, whose numbers are uncertain, are shown with a selection of clear calls. Calls come from the whole dose curve; as a rule, active = well fitted inhibition curve with a large enough effect; inconclusive = small, poorly fitted or top-dose-only effect; inactive = no such curve, though single readings can be large or run the other way. Potencies of inconclusive entries are doubtful fits and often do not repeat.

target: Regulator of G-protein signaling 4 (Homo sapiens) (UniProt P49798); test: Inhibitors of Regulator of G Protein Signaling (RGS) 4: qHTS; conditions: Transcreener GDP fluorescence polarization, RGS4-accelerated GTP hydrolysis; series mostly up to 114 µM; note: nearly all actives have a fitted effect of over 75% in size
Outline: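 MLSMR compounds (23 nl, pin-transferred) preincubated 10 min at room temperature with a 500nM (2x) first reagent, then RGS4 at 900nM (2x) plus Transcreener GDP mix added; fluorescence polarization (620/688 nm) read before and after 90 min at 30 °C.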
% is set by controls: 0 for no effect and ±100 for the full control effect; potency is the fitted concentration of half-maximal effect; tags give direction and shape of the fitted curve.

Sequence of UniProt P49798 (P49798 whole entry, looked up): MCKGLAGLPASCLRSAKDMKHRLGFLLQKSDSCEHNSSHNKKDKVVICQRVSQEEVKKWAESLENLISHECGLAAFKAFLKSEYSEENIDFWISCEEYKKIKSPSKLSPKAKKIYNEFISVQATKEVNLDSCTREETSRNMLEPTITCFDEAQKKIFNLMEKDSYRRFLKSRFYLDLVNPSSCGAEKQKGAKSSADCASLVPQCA

Structure (SMILES) | Potency | activity change, negative = inhibition
Cc1cc2nn(-c3ccc(F)cc3)nc2cc1N | inconclusive: 28.2 µM [inhibitor, full curve, poor fit] | –
CCOC(=O)c1c[nH]c2ccc([N+](=O)[O-])cc12 | inactive | –
Cc1ccc(NC(=S)Nc2ccc3nc(-c4ccccn4)c(-c4ccccn4)nc3c2)cc1C | inconclusive: 79.4 µM [inhibitor, partial curve, poor fit] | –
Cc1cccc(-c2nsc(SCC(=O)NCc3ccco3)n2)c1 | inconclusive: 70.8 µM [inhibitor, single point] | –
Cc1c(Cl)cccc1NC(=O)CC(Cc1ccccc1)C(=O)O (stereo unspecified) | inactive | –
Nc1nc(=S)c2ncn(C3CCCC3)c2[nH]1 | inconclusive: 89.1 µM [inhibitor, partial curve, poor fit] | –
O=C(CSc1n[nH]c(-c2ccncc2)n1)Nc1ccc(Br)cc1 | inactive | –
CCOCCCn1c(=NC(=O)c2cccnc2)c(C(=O)OCC)cc2c(=O)n3ccccc3nc21 | inconclusive: 56.2 µM [inhibitor, partial curve, poor fit] | –
NC1(C(=O)O)CCc2cc(P(=O)(O)O)ccc21 (stereo unspecified) | active: 37.7 µM | –
Nc1ccc(N=Nc2ccc(O)cc2)c(N)n1 | inconclusive: 35.5 µM [inhibitor, partial curve, poor fit] | –
Nc1nc(SCC(=O)NCCOCCO)nc2sc3c(c12)CCCC3 | inconclusive: 89.1 µM [inhibitor, single point] | –
COc1cc(CNc2ccc(O)cc2)cc(Br)c1OCc1ccccc1F | inconclusive: 50.1 µM [inhibitor, partial curve, poor fit] | –
CN(C)c1ccc(C=c2c3ccccc3n3c2c2ccccc2[n+]3C)cc1 | inconclusive: 35.5 µM [inhibitor, partial curve, poor fit] | –
CC(=O)NCc1ccc(C(=O)CSc2nnc(C3CC3)n2C2CC2)cc1 | inconclusive: 39.8 µM [inhibitor, partial curve, poor fit] | –
O=C1C(c2ccccc2)SC(=Nc2ccccc2)N1S(=O)(=O)c1ccccc1 (stereo unspecified) | inconclusive: 70.8 µM [inhibitor, partial curve, poor fit] | –
Cc1nc(N)sc1-c1csc(Nc2cccc(C(=O)O)c2)n1 | inconclusive: 56.2 µM [inhibitor, partial curve, poor fit] | –
CCOC(=O)CC1=NN(c2ccccc2)C(=O)/C1=C\c1ccc(OC)cc1OC | inconclusive: 79.4 µM [inhibitor, partial curve, poor fit] | –
Cc1sc(N/N=C/c2cc([N+](=O)[O-])ccc2O)nc1-c1ccccc1 | inconclusive: 28.2 µM [inhibitor, full curve, poor fit] | –
CCS(=O)(=O)c1oc(-c2ccc(F)cc2)nc1S(=O)(=O)c1ccc(Br)cc1 | inconclusive: 15.8 µM [inhibitor, full curve, poor fit] | –
CC(C)(C)C(=O)Nc1cccc(C(=O)OCc2cc(=O)n3nc(C4CC4)sc3n2)c1 | inactive | –
COc1ccccc1NS(=O)(=O)c1cc(NC(=O)c2cc[n+]([O-])cc2)ccc1N1CCCC1 | inconclusive: 44.7 µM [inhibitor, partial curve, poor fit] | –
Cc1ccc(CNC(=O)CN(Cc2ccccc2)S(C)(=O)=O)cc1 | inconclusive: 89.1 µM [inhibitor, single point] | –

Structure (SMILES) | Potency | activity change, negative = inhibition
COc1ccc(-c2cc(OC(=O)c3cccc(C)c3)c3c(C)oc(C)c3c(=O)c2)cc1 | inconclusive: 10 µM [inhibitor, full curve, poor fit] | –
Cc1nc2ccc(S(=O)(=O)Nc3ccc(-c4nc5cccnc5s4)cc3)cc2s1 | inactive | –
COc1ccc(-n2nnnc2SCC(=O)c2ccc3c(c2)OCCO3)c(OC)c1 | inconclusive: 17.8 µM [inhibitor, full curve, poor fit] | –
Cc1cc(C(=O)OCC(=O)Nc2c(F)cccc2F)c(C)n1-c1ccccc1 | inconclusive: 25.1 µM [inhibitor, full curve, poor fit] | –
COc1cccc(Nc2n[nH]c(=S)s2)c1 | inconclusive: 35.5 µM [inhibitor, full curve, poor fit] | –
CCc1cc2c(=O)n(CC(C)C)cnc2s1 | inactive | –
CCc1ccc(NC(=O)[C@H](NC(=O)[C@@H]2Cc3ccccc3CN2)c2ccccc2)cc1 | inactive | –
Oc1ccccc1/C=N/Nc1nn[nH]n1 | inactive | –
Cc1cc(C)nc(NNS(=O)(=O)c2c(F)cc(F)cc2Br)n1 | inconclusive: 100 µM [inhibitor, partial curve, poor fit] | –
CCCC(C)c1nnc(NC(=O)CN2C(=O)c3ccccc3C2=O)s1 (stereo unspecified) | inconclusive: 17.8 µM [inhibitor, full curve, poor fit] | –
CC1CCN(S(=O)(=O)c2ccc3c(c2)N(CC(=O)NCc2cccnc2)C(=O)CS3)CC1 | inconclusive: 39.8 µM [inhibitor, full curve, poor fit] | –
O=C(OCCn1c(=S)sc2ccccc21)c1ccccc1 | inconclusive: 100 µM [inhibitor, single point] | –
CCOC(=O)/C(=C\c1ccc(Cl)cc1)c1nc2sc(C)c(C)c2c(=O)[nH]1 | inconclusive: 31.6 µM [inhibitor, full curve, poor fit] | –
COc1ccc(C(=O)NCCC2=CCCCC2)cc1 | inactive | –
O=C(O)CCCn1cc(NC(=O)c2cc(F)c(F)cc2Cl)cn1 | inconclusive: 44.7 µM [inhibitor, partial curve, poor fit] | –
CC1(C)Cc2nc3oc4c(=S)nc[nH]c4c3cc2CO1 | inconclusive: 79.4 µM [inhibitor, partial curve, poor fit] | –
COc1ccc(C(=O)NC(=S)N2CCN(c3ccccc3O)CC2)cc1 | inconclusive: 89.1 µM [inhibitor, partial curve, poor fit] | –
Cc1ccc(NC(=O)NNc2cccc(Cl)n2)cc1 | inconclusive: 70.8 µM [inhibitor, partial curve, poor fit] | –
OC(CSc1c(Cl)cccc1Cl)CN1CCN(c2ccccc2F)CC1 (stereo unspecified) | inactive | –
O=C(Nc1nnc(-c2ccc3c(c2)OCCO3)o1)c1ccc(Cc2ccccc2)cc1 | inconclusive: 10 µM [inhibitor, full curve, poor fit] | –
CSc1cccc(Nc2cc(C(=O)NCCCN(Cc3ccccc3)C(C)C)c3ccccc3n2)c1 | inactive | –
Cc1c(C(=O)OC/C(O)=C(\C#N)c2nc3ccccc3[nH]2)oc2ccccc12 | inactive | –

Structure (SMILES) | Potency | activity change, negative = inhibition
O=c1c2ccccc2nnn1-c1ccccc1 | inactive | –
COc1ccc(-c2nn(-c3ccccc3)cc2/C=C2/SC(=S)N(CCCC(=O)O)C2=O)c(C)c1 | inconclusive: 89.1 µM [inhibitor, single point] | –
CCOc1ccc2nc3sc(C(=O)N4CCOCC4)c(N)c3cc2c1 | inconclusive: 56.2 µM [inhibitor, partial curve, poor fit] | –
COc1cccc(OCCN2CCN(c3ncnc4c3cnn4-c3ccccc3)CC2)c1 | inactive | –
CC1Cc2cc(S(=O)(=O)NCCc3ccccc3)ccc2N1C(=O)C1CC1 (stereo unspecified) | inactive | –
c1ccc(CSc2ccc(-c3ccco3)nn2)cc1 | inactive | –
CCOC(=O)c1c(-c2ccccc2)csc1NC(=O)COc1ccc2c(C)cc(=O)oc2c1 | inconclusive: 100 µM [inhibitor, single point] | –
c1ccc(Cc2nn3c(-c4ccncc4)nnc3s2)cc1 | inconclusive: 100 µM [inhibitor, partial curve, poor fit] | –
C/C=C\C=C/C(=O)Nc1cccc(C2=NOC3(C2)C[C@H](C(N)=O)N(C(=O)CC)C3)c1 (stereo partly specified) | inconclusive: 25.1 µM [inhibitor, full curve, poor fit] | –
CCOc1cc(/C=C2\C(=N)N3N=C(N4CCCCC4)SC3=NC2=O)ccc1OC(=O)c1ccco1 | inconclusive: 50.1 µM [inhibitor, partial curve, poor fit] | –
CN(C)CCCN1C(=O)c2cccc3c([N+](=O)[O-])ccc(c23)C1=O | inactive | –
COc1cc(/C=C2/C(=N)N3C(=NC2=O)SN=C3S(C)(=O)=O)ccc1OS(=O)(=O)c1ccc(C)cc1 | inconclusive: 79.4 µM [inhibitor, partial curve, poor fit] | –
Cc1cc(C[n+]2ccsc2N)c2ncccc2c1 | inactive | –
Cc1ccc(-n2c(-c3ccccc3)n[nH]c2=S)c(C)c1 | inconclusive: 89.1 µM [inhibitor, partial curve, poor fit] | –
CN1CCN(C(=O)c2sc(=S)n(-c3ccccc3)c2N)CC1 | inconclusive: 28.2 µM [inhibitor, full curve, poor fit] | –
N#CCC(=O)Nc1ccc(C(=O)OCC(=O)c2ccc3c(c2)NC(=O)CO3)cc1 | inconclusive: 79.4 µM [inhibitor, partial curve, poor fit] | –
Cc1ccccc1NC(=S)N(CCN1CCCCCC1)Cc1cccs1 | inactive | –
Cc1ccc(S(=O)(=O)CCC(=O)c2ccc(O)cc2O)cc1 | inconclusive: 79.4 µM [inhibitor, single point] | –
CCN(CC)S(=O)(=O)c1ccc(OC)c(NC(=S)Nc2ccc(C)c(C)c2)c1 | inconclusive: 44.7 µM [inhibitor, partial curve, poor fit] | –
COC(=O)[C@@H]1CCCN1C(=O)CCc1nnc(CCC2CCCCC2)o1 | inactive | –
Cc1cc(C)n(-c2ccc(Oc3ccccc3)c(S(=O)(=O)O)c2)n1 | inconclusive: 70.8 µM [inhibitor, partial curve, poor fit] | –
O=C(CCn1cnc(-c2ccccc2)c1-c1ccccc1)N/N=C/c1ccc(O)cc1 | – | inactive: -14.1% [at 11.4 µM]
